Measurements published in PMC3069058.
Results are given in words; binding and its absence hold for the method and conditions named. In cells and extracts the contact can be indirect. Some entries that bind do so weakly or less than the wild type.

Chains of the proteins cited; added tags and fusions are not shown. Lines headed by an entry give the natural chain unless they say otherwise; changes in a name come on top. Residues count along the entry.
UniProt Q04206: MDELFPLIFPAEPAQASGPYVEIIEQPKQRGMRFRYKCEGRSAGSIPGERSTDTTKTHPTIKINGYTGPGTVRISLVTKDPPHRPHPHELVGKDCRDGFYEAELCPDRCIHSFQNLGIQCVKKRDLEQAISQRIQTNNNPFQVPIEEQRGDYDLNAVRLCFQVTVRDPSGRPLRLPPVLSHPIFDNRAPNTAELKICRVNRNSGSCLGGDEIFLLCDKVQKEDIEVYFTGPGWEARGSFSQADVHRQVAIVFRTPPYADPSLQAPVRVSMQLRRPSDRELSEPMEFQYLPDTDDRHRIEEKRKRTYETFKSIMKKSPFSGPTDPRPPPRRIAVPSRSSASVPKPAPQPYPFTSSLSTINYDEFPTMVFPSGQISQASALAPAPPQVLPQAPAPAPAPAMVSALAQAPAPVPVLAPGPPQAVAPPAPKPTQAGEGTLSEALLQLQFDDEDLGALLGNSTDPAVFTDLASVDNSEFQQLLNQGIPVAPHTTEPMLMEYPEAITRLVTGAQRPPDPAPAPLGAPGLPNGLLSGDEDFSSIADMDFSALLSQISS
UniProt Q9BQ69: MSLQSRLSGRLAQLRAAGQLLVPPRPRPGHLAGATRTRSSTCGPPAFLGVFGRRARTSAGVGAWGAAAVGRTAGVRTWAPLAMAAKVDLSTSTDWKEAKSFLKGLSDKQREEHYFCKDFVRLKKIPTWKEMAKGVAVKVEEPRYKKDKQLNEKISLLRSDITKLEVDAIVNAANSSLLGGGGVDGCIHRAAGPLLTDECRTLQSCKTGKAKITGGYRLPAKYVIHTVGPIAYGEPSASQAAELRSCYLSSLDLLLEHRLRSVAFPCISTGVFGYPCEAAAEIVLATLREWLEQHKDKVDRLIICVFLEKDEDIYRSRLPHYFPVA
UniProt P19838, residues 1-433: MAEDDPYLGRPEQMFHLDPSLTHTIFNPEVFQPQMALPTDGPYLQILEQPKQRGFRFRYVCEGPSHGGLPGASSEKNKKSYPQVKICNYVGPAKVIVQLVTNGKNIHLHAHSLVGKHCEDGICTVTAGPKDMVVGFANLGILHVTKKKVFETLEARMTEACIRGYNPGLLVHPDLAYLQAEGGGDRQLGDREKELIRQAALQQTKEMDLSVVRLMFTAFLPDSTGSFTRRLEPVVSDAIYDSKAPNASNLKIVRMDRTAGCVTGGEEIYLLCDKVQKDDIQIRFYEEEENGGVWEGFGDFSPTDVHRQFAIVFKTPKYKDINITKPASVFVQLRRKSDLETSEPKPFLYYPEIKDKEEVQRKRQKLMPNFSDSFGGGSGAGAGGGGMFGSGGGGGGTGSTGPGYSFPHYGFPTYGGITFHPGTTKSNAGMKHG

B1: c-Rel ([35S]methionine-labeled) (protein, UniProt Q04864 1-619)
chain: MASGAYNPYIEIIEQPRQRGMRFRYKCEGRSAGSIPGEHSTDNNRTYPSIQIMNYYGKGKVRITLVTKNDPYKPHPHDLVGKDCRDGYYEAEFGQERRPLFFQNLGIRCVKKKEVKEAIITRIKAGINPFNVPEKQLNDIEDCDLNVVRLCFQVFLPDEHGNLTTALPPVVSNPIYDNRAPNTAELRICRVNKNCGSVRGGDEIFLLCDKVQKDDIEVRFVLNDWEAKGIFSQADVHRQVAIVFKTPPYCKAITEPVTVKMQLRRPSDQEVSESMDFRYLPDEKDTYGNKAKKQKTTLLFQKLCQDHVETGFRHVDQDGLELLTSGDPPTLASQSAGITVNFPERPRPGLLGSIGEGRYFKKEPNLFSHDAVVREMPTGVSSQAESYYPSPGPISSGLSHHASMAPLPSSSWSSVAHPTPRSGNTNPLSSFSTRTLPSNSQGIPPFLRIPVGNDLNASNACIYNNADDIVGMEASSMPSADLYGISDPNMLSNCSVNMMTTSSDSMGETDNPRLLSMNLENPSCNSVLDPRDLRQLHQMSSSSMSAGANSNTTVFVSQSDAFEGSDFSCADNSMINESGPSNSTNPNSHGFVQDSQYSGIGSMQNEQLSDSFPYEFFQV
modifications: [35S]methionine-labeled

Key:
[1] = biological target: endogenous p65 (human (endogenous in 293T)) (UniProt Q04206); assay: co-IP; endogenous proteins, 293T cell lysates, cells untreated or treated with TNF-α (10 ng/ml) for the indicated times; IP with anti-p65 or anti-LRP16 antibody, immunoblot
[2] = biological target: endogenous p65 (human (endogenous in 293T)) (UniProt Q04206); assay: co-IP; endogenous proteins, nuclear lysates of 293T cells transfected with control or LRP16 siRNAs and treated with 10 ng/ml TNF-α for the indicated times; IP and immunoblot with the indicated antibodies
[3] = biological target: endogenous LRP16 (human (endogenous in 293T)) (UniProt Q9BQ69); assay: co-IP; endogenous proteins, 293T cell lysates, cells untreated or treated with TNF-α (10 ng/ml) for the indicated times; IP with anti-p65 or anti-LRP16 antibody, immunoblot
GST-LRP16 = GST-LRP16 (UniProt Q9BQ69); assay: pull-down; GST or GST fusion protein as bait, incubated with [35S]-labeled in vitro translated protein; done as described previously [23],[53]; only the target purified
Flag-tagged LRP16 = Flag-tagged LRP16 (UniProt Q9BQ69); assay: co-IP; 293T cells cotransfected with p65 and Flag-tagged LRP16 constructs, lysed 48 h after transfection; CoIP with the indicated antibodies

binding (GST-LRP16) | also measured | Molecule
– | binding [1]: binds | endogenous LRP16 (from UniProt Q9BQ69 1-325)
– | binding [2]: binds | endogenous p50 (from UniProt P19838 1-433)
– | binding [3]: binds | endogenous p65 (from UniProt Q04206 1-551)
no binding | – | p50 ([35S]methionine-labeled) (from UniProt P19838 1-433)
binds | – | p65 (full-length, [35S]-labeled, in vitro translated) (from UniProt Q04206 1-551)
– | binding (Flag-tagged LRP16): binds | p65 (transfected) (from UniProt Q04206 1-551)
binds | – | p65 fragment 1–286 (from UniProt Q04206 1-286) (domain or fragment)
binds | – | p65 fragment 1–312 (from UniProt Q04206 1-312) (domain or fragment)
binds | – | p65 fragment 1–372 (from UniProt Q04206 1-372) (domain or fragment)
no binding | – | p65 fragment 285–551 (from UniProt Q04206 285-551) (domain or fragment)
no binding | – | p65 fragment 307–551 (from UniProt Q04206 307-551) (domain or fragment)
no binding | – | B1
